# Measurements as given in publication PMC9911399, “Two distinct binding modes provide the RNA-binding protein RbFox with extraordinary sequence specificity”.
# Changes are numbered by the printed parent chain; changes in the protein carry UniProt numbers. The list shows a part of the results.
# T1: RBFOX1 RRM (Homo sapiens, UniProt Q9NWB1 109-208)
# T1 sequence: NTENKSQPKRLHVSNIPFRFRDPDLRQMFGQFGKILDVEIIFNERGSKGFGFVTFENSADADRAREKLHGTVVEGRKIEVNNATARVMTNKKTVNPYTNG
# B1: UCGAGUU (DNA:RNA)
# RNA: GGGAGACCGGAAUUCAGAUUGUCCUCGAGUUUUAAAUCCCGUCGUAGCCACCA
# DNA 1: CAATCTGAATTCCGGTCTCCC
# DNA 2: TGGTGGCTACGACGGGATT
# B2: CUUCAGU (DNA:RNA)
# RNA: B1 RNA with U25C, C26U, G27U, A28C, G29A, U30G
# DNA 1: CAATCTGAATTCCGGTCTCCC
# DNA 2: TGGTGGCTACGACGGGATT
# B3: ACAAUAC (DNA:RNA)
# RNA: B1 RNA with U25A, G27A, G29U, U30A, U31C
# DNA 1: CAATCTGAATTCCGGTCTCCC
# DNA 2: TGGTGGCTACGACGGGATT
# B4: CGCCUAC (DNA:RNA)
# RNA: GGGAGACCGGAAUUCAGAUUGUCCCGCCUACUUAAAUCCCGUCGUAGCCACCA
# DNA 1: CAATCTGAATTCCGGTCTCCC
# DNA 2: TGGTGGCTACGACGGGATT
# B5: GUCGUGC (DNA:RNA)
# RNA: B4 RNA with C25G, G26U, C28G, A30G
# DNA 1: CAATCTGAATTCCGGTCTCCC
# DNA 2: TGGTGGCTACGACGGGATT
# B6: CGAUACG (DNA:RNA)
# RNA: B4 RNA with C27A, C28U, U29A, A30C, C31G
# DNA 1: CAATCTGAATTCCGGTCTCCC
# DNA 2: TGGTGGCTACGACGGGATT
# B7: GGCUCGC (DNA:RNA)
# RNA: B4 RNA with C25G, C28U, U29C, A30G
# DNA 1: CAATCTGAATTCCGGTCTCCC
# DNA 2: TGGTGGCTACGACGGGATT
# B8: UGGAUUC (DNA:RNA)
# RNA: B1 RNA with C26G, G29U, U31C
# DNA 1: CAATCTGAATTCCGGTCTCCC
# DNA 2: TGGTGGCTACGACGGGATT
# B9: UAACUGC (DNA:RNA)
# RNA: B4 RNA with C25U, G26A, C27A, A30G
# DNA 1: CAATCTGAATTCCGGTCTCCC
# DNA 2: TGGTGGCTACGACGGGATT
# B10: UAAAUAC (DNA:RNA)
# RNA: B4 RNA with C25U, G26A, C27A, C28A
# DNA 1: CAATCTGAATTCCGGTCTCCC
# DNA 2: TGGTGGCTACGACGGGATT
# B11: UGGUUAC (DNA:RNA)
# RNA: B4 RNA with C25U, C27G, C28U
# DNA 1: CAATCTGAATTCCGGTCTCCC
# DNA 2: TGGTGGCTACGACGGGATT
# B12: UACCACC (DNA:RNA)
# RNA: B4 RNA with C25U, G26A, U29A, A30C
# DNA 1: CAATCTGAATTCCGGTCTCCC
# DNA 2: TGGTGGCTACGACGGGATT
# B13: UGAACUU (DNA:RNA)
# RNA: B1 RNA with C26G, G27A, G29C
# DNA 1: CAATCTGAATTCCGGTCTCCC
# DNA 2: TGGTGGCTACGACGGGATT
# B14: UGGACAG (DNA:RNA)
# RNA: B1 RNA with C26G, G29C, U30A, U31G
# DNA 1: CAATCTGAATTCCGGTCTCCC
# DNA 2: TGGTGGCTACGACGGGATT
# B15: UCUUCAA (DNA:RNA)
# RNA: B1 RNA with G27U, A28U, G29C, U30A, U31A
# DNA 1: CAATCTGAATTCCGGTCTCCC
# DNA 2: TGGTGGCTACGACGGGATT
# B16: UGCUUGC (DNA:RNA)
# RNA: B4 RNA with C25U, C28U, A30G
# DNA 1: CAATCTGAATTCCGGTCTCCC
# DNA 2: TGGTGGCTACGACGGGATT
# B17: AGCUUUU (DNA:RNA)
# RNA: B4 RNA with C25A, C28U, A30U, C31U
# DNA 1: CAATCTGAATTCCGGTCTCCC
# DNA 2: TGGTGGCTACGACGGGATT
# B18: GGGGCCG (DNA:RNA)
# RNA: B4 RNA with C25G, C27G, C28G, U29C, A30C, C31G
# DNA 1: CAATCTGAATTCCGGTCTCCC
# DNA 2: TGGTGGCTACGACGGGATT
# B19: GGCCUUC (DNA:RNA)
# RNA: B4 RNA with C25G, A30U
# DNA 1: CAATCTGAATTCCGGTCTCCC
# DNA 2: TGGTGGCTACGACGGGATT
# B20: CUGAGGC (DNA:RNA)
# RNA: B1 RNA with U25C, C26U, U30G, U31C
# DNA 1: CAATCTGAATTCCGGTCTCCC
# DNA 2: TGGTGGCTACGACGGGATT
# B21: CGAAGUC (DNA:RNA)
# RNA: B4 RNA with C27A, C28A, U29G, A30U
# DNA 1: CAATCTGAATTCCGGTCTCCC
# DNA 2: TGGTGGCTACGACGGGATT
# B22: AUUUGGA (DNA:RNA)
# RNA: B1 RNA with U25A, C26U, G27U, A28U, U30G, U31A
# DNA 1: CAATCTGAATTCCGGTCTCCC
# DNA 2: TGGTGGCTACGACGGGATT
# B23: UAGUCAU (DNA:RNA)
# RNA: B1 RNA with C26A, A28U, G29C, U30A
# DNA 1: CAATCTGAATTCCGGTCTCCC
# DNA 2: TGGTGGCTACGACGGGATT
# B24: CAUUGAC (DNA:RNA)
# RNA: B4 RNA with G26A, C27U, C28U, U29G
# DNA 1: CAATCTGAATTCCGGTCTCCC
# DNA 2: TGGTGGCTACGACGGGATT
# B25: UGUCAUA (DNA:RNA)
# RNA: B4 RNA with C25U, C27U, U29A, A30U, C31A
# DNA 1: CAATCTGAATTCCGGTCTCCC
# DNA 2: TGGTGGCTACGACGGGATT
# B26: ACACGGU (DNA:RNA)
# RNA: B1 RNA with U25A, G27A, A28C, U30G
# DNA 1: CAATCTGAATTCCGGTCTCCC
# DNA 2: TGGTGGCTACGACGGGATT
# B27: UGUGGUC (DNA:RNA)
# RNA: B1 RNA with C26G, G27U, A28G, U31C
# DNA 1: CAATCTGAATTCCGGTCTCCC
# DNA 2: TGGTGGCTACGACGGGATT
# B28: UAUUGGU (DNA:RNA)
# RNA: B1 RNA with C26A, G27U, A28U, U30G
# DNA 1: CAATCTGAATTCCGGTCTCCC
# DNA 2: TGGTGGCTACGACGGGATT
# B29: GAGACCC (DNA:RNA)
# RNA: B1 RNA with U25G, C26A, G29C, U30C, U31C
# DNA 1: CAATCTGAATTCCGGTCTCCC
# DNA 2: TGGTGGCTACGACGGGATT
# B30: AAAAAUG (DNA:RNA)
# RNA: B1 RNA with U25A, C26A, G27A, G29A, U31G
# DNA 1: CAATCTGAATTCCGGTCTCCC
# DNA 2: TGGTGGCTACGACGGGATT
# B31: GGCUGAA (DNA:RNA)
# RNA: B4 RNA with C25G, C28U, U29G, C31A
# DNA 1: CAATCTGAATTCCGGTCTCCC
# DNA 2: TGGTGGCTACGACGGGATT
# Target: T1, RBFOX1 RRM
# Test: EMSA; HiTS-Eq, 1 nM pool, 10 min; buffer printed only for the single-RNA assays: 10 mM Tris pH 7.5, 150 mM NaCl, 3.4 mM EDTA, 0.001% NP-40, 30 C
# Conditions: tags: His6 N-terminal (pET28a); label: 5' 32P
# Summary of the method: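 These values rest on relative association constants, computed from read-count changes of each RNA species versus the control reaction and normalised to the cognate motif. Reads came from free RNA recovered by 8% native PAGE after purified RbFox RRM (wild type or mutant) at increasing concentrations was equilibrated for 10 min in 50 µL with 1 nM of a 5′-radiolabelled pool with 7 randomized nucleotides and DNA-annealed flanks.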
row,Binder,binding signal
1,B1,0.00811 KA relative to UGCAUGU
2,B2,0.0048 KA relative to UGCAUGU
3,B3,0.000248 KA relative to UGCAUGU
4,B4,0.00556 KA relative to UGCAUGU
5,B5,0.0206 KA relative to UGCAUGU
6,B6,0.00904 KA relative to UGCAUGU
7,B7,0.0155 KA relative to UGCAUGU
8,B8,0.0192 KA relative to UGCAUGU
9,B9,0.017 KA relative to UGCAUGU
10,B10,0.00799 KA relative to UGCAUGU
11,B11,0.0158 KA relative to UGCAUGU
12,B12,0.00077 KA relative to UGCAUGU
13,B13,0.0116 KA relative to UGCAUGU
14,B14,0.0221 KA relative to UGCAUGU
15,B15,0.00525 KA relative to UGCAUGU
16,B16,0.088 KA relative to UGCAUGU

row,Binder,binding signal
1,B17,0.0103 KA relative to UGCAUGU
2,B18,0.027 KA relative to UGCAUGU
3,B19,0.00592 KA relative to UGCAUGU
4,B20,0.0163 KA relative to UGCAUGU
5,B21,0.0108 KA relative to UGCAUGU
6,B22,0.00248 KA relative to UGCAUGU
7,B23,0.00945 KA relative to UGCAUGU
8,B24,0.00465 KA relative to UGCAUGU
9,B25,0.00564 KA relative to UGCAUGU
10,B26,0.00589 KA relative to UGCAUGU
11,B27,0.025 KA relative to UGCAUGU
12,B28,0.0172 KA relative to UGCAUGU
13,B29,0.00378 KA relative to UGCAUGU
14,B30,0.000279 KA relative to UGCAUGU
15,B31,0.0275 KA relative to UGCAUGU
